This note sets out measurements from ChEMBL document CHEMBL4888484, “Replenishing the malaria drug discovery pipeline: Screening and hit evaluation of the MMV Hit Generation Library 1 (HGL1) against asexual blood stage Plasmodium falciparum ,using a nano luciferase reporter read-out” (2022).

SMILES strings stand for the structures. Screen size: about 150,000 compounds; about 540 (0.36%) showed an effect of 50% or more. Some of the results follow.

The assay deals with Plasmodium falciparum. The experiment in a line: Primary screen in NF54 nanoGlo assay, in single point, at 2uM, 72h; a lower Z score goes with more inhibition. It is filed as functional, Erythrocyte. The note with it: timepoint 72 hour.
Turning to `O=C(Cc1ccccc1F)Nc1[nH]ncc1-c1ccc2c(c1)OCO2`, the % Inhibition (as a rule, the relative decrease from the control value, in per cent) is reported as -3% and the Z score stood at 0.55.

On to `O=C1CCCN1c1cccc(NC(=O)N2CCC[C@@H]2CO)c1`, for which the “% Inhibition” value is on record as 33% and the Z score is -3.73.

Regarding `CC#CCn1nc(C2CC2)nc1C1CC1`, the “% Inhibition” value is -14% and the Z score was 2.13.

`Cc1nc(CC(C)C)oc1C(=O)N1CCn2c1nc1ccccc12`: the “% Inhibition” value was -4% and the Z score turned out to be 0.67.

Consider `Cc1ccsc1C(=O)NCc1nc(C2CCC(F)(F)CC2)no1`, for which the “% Inhibition” value was -10% and the Z score amounted to 1.24.

As for `O=C(Cn1ccnc1-c1cccs1)NCc1ccccc1`, the “% Inhibition” value is given as -11% and the Z score is 1.52.

For `COC(C)c1nsc(N2CCCC2c2nc3ccccc3s2)n1` (centres undefined), the “% Inhibition” value is -7% and the Z score was 1.04.

Consider `Cc1ncc(C(=O)NC[C@@H]2C[C@H]2c2ccccc2)c(C2CC2)n1`, for which the “% Inhibition” value is reported as -1% and the Z score was determined as 0.13.

Regarding `CCOc1ccc(NC(=O)C[C@H]2CCCN(c3cnn(C)c(=O)c3)C2)cc1`, the “% Inhibition” value is given as -13% and the Z score is on record as 1.71.

Consider `CN1CCCN(c2cnn(Cc3cccc(F)c3C(F)(F)F)c(=O)c2)CC1`, for which the “% Inhibition” value is recorded as -15% and the Z score was 1.42.

For `O=C1C[C@@H](c2ccccc2)N(C(=O)CNS(=O)(=O)c2ccccc2)CCCCCN1`, the “% Inhibition” value was -5% and the Z score is reported as 0.61.

`CCc1nc(OC)ccc1NC(=O)c1snnc1C1CC1`: the “% Inhibition” value was found to be 6% and the Z score is recorded as -1.21.

For the compound `COc1ccc(NC(=O)N2CCC(CN3CCc4ccccc43)CC2)c(C)c1`, the “% Inhibition” value is on record as -10% and the Z score came to 1.83.

On to `O=C(CCN1CCCCO1)N1CCN(c2ncncn2)CC1`, for which the “% Inhibition” value was -13% and the Z score stood at 2.52.

Turning to `CN1CC2(C[C@H]1c1nc(-c3ccccc3)no1)CN(C(=O)c1ccncc1)C2`, the “% Inhibition” value was -9% and the Z score is 1.04.

As for `CN(Cc1ncc(Br)cn1)Cc1noc2c1COCC2`, the “% Inhibition” value is 9% and the Z score is given as -1.36.

Regarding `COC(=O)c1ccc(N2CCC[C@H]2c2ccc(OC)cc2)nn1`, the “% Inhibition” value stood at 2% and the Z score was -0.29.

Consider `COCCCn1c(C)cc(C(=O)N2CCC(C)(c3noc(-c4ccncc4)n3)CC2)c1C`, for which the “% Inhibition” value was determined as 1% and the Z score was -0.19.

As for `O=C(NC1CCCC1)N1CC[C@H](CCOc2ccccc2F)C1`, the “% Inhibition” value is recorded as -1% and the Z score came to 0.1.

With `CCOc1ccc([C@@]2(O)CN3CCCCCC3=[N+]2c2ccc(C)cc2)cc1`, the “% Inhibition” value came out at 1% and the Z score was -0.19.

Consider `CN1CCCC[C@@H]1CCNC(=O)c1ccc(N2CC(n3cccn3)C2)nc1`, for which the “% Inhibition” value was -2% and the Z score is listed as 0.27.

Regarding `COc1cc(NC(=O)CN[C@H]2CCCc3sc(C)nc32)cc(OC)c1`, the “% Inhibition” value is -4% and the Z score is reported as 0.6.

Regarding `CN1CCN(C(=O)c2ccn3c(-c4ccccc4)nnc3c2)CC1`, the “% Inhibition” value is -10% and the Z score amounted to 1.62.

For the compound `Cc1cc(CS(=O)(=O)N[C@@H](C)c2ccc(Cl)cc2Cl)on1`, the “% Inhibition” value is reported as -2% and the Z score is on record as 0.29.

Take `COC[C@H]1CCCN1S(=O)(=O)NCc1csc(N)n1`: the “% Inhibition” value is listed as -6% and the Z score was determined as 0.77.

For `Cc1cccc(C)c1OCc1cc(C(=O)N2CCN(C)C(=O)[C@@H]2C)no1`, the “% Inhibition” value is -6% and the Z score was 0.86.

As for `CCOC(C)C(=O)N1CCCC(CC)C1` (centres undefined), the “% Inhibition” value is given as 2% and the Z score was -0.32.

In the case of `NC(=O)CN1CCC[C@H](c2ncnn2-c2ccc(OC(F)(F)F)cc2)C1`, the “% Inhibition” value is recorded as 16% and the Z score is given as -2.11.

On to `CC(=O)C1CCN(S(C)(=O)=O)CC1`, for which the “% Inhibition” value is listed as -8% and the Z score is given as 1.2.

Take `CC(C)COC1CCN(CN2C(=O)C3CC=CCC3C2=O)C1` (centres undefined): the “% Inhibition” value is on record as -19% and the Z score worked out at 1.56.

Regarding `CC1=C(C(=O)N2CCOCC2)[C@H](c2ccccc2Cl)n2nc(C)nc2N1`, the “% Inhibition” value is given as -22% and the Z score came out at 3.19.

Turning to `COc1cc(Cl)c(C)cc1NC(=O)Cn1nc2c3sc(N4CCCC4)nc3ncn2c1=O`, the “% Inhibition” value is -10% and the Z score turned out to be 0.93.

Consider `CN1C(=O)c2ccccc2Oc2ccc(C(=O)NCc3ccc(F)cc3)cc21`, for which the “% Inhibition” value came to 2% and the Z score was -0.3.

Consider `CC(C)Oc1cc(NC(Cc2ccccn2)[C@H]2C[C@H](O)C2)nc(N)n1` (some centres undefined), for which the “% Inhibition” value turned out to be 7% and the Z score is reported as -1.33.

Regarding `O=C(NC1CC1)c1n[nH]c2c1CCCCCC2`, the “% Inhibition” value is recorded as -6% and the Z score is 1.03.

Regarding `N#Cc1ccc(F)c(CS(=O)(=O)NCC2(C3CC3)CCC2)c1`, the “% Inhibition” value is -12% and the Z score is reported as 1.11.

For the compound `C[C@@H](CCn1cccn1)Nc1ccc(-n2ccnn2)cc1`, the “% Inhibition” value is listed as -11% and the Z score was determined as 0.97.

`O=C1CC[C@@H](C(=O)NCCCOc2cccnc2)N1`: the “% Inhibition” value was -17% and the Z score was 1.94.

As to `O=C(NCc1nnc([C@H]2CCOC2)[nH]1)c1ccc(Cl)c2occc12`, the “% Inhibition” value is -1% and the Z score is reported as 0.26.

As to `CCn1cc(C(=O)N(C)S(=O)(=O)C(C)C)cn1`, the “% Inhibition” value worked out at 0% and the Z score was -0.05.

Consider `CCc1noc(C2CCC(NC[C@@H](O)c3ccc(F)cc3)CC2)n1` (some centres undefined), for which the “% Inhibition” value is on record as -10% and the Z score worked out at 1.27.

Regarding `Cc1nn(CCN(C)C)c(=O)c2nc(N)sc12`, the “% Inhibition” value is on record as -5% and the Z score worked out at 0.57.
